According to the supplement of paper PMC10126150:
Values marked as one replicate rest on one cluster of the flow cell; about a third of the high ones do not repeat.

System: ATP
Assay: switch fluorescence ratio, 500 uM ATP over buffer (Cy3 cluster intensity, sum of 5 cycles each) (fold (ratio)); higher = stronger signal-on switching upon ATP binding; sequences stand for … in TCGTCGGCAGCGTCAGATGTGTATAAGAGACAGTTTTTTTTTTTTTTTTTTTTTTTTT…TC
Details: aptamer strand: ATP DNA aptamer (quencher-CACCTGGGGGAGTATTGCGGAGGAAGG + anchor), 100 nM annealed; ATP concentration: 500 uM; one replicate
How it was run: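 Between each of five buffer/ATP cycles, the flow-cell was stripped with NaOH and re-annealed. Each cycle imaged Cy3-labelled switching-strand clusters, annealed to 100 nM quencher-labelled ATP aptamer on a modified Illumina MiSeq flow-cell, first in selection buffer and then after 15 min with 500 uM ATP at 22 °C. The fluorescence ratio is summed target-cycle over summed buffer-cycle Cy3 intensity per cluster, averaged per switch-domain sequence, with clusters outside 100-1000 RFU excluded.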
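Note: ATP exposure 15 min at 22 °C before imaging.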

Sequence | switch fluorescence ratio
CTATATCGAT | 0.967
GGCCCGGTAC | 1.66
AAGGGTAGAC | 1.01
GCGTATAAA | 1.01
CCGAAGAGAG | 1.55
GTTTTCAAGC | 1.04
CAAGTGACGC | 1.06
TTGCCCCATT | 0.958
TTAAACACGA | 1.02
TTGGTACGAG | 1.03
GAGCTAATGT | 1.02
ACTCAGAAT | 1
AGGTAAAATA | 1.02
CACCGAGGTA | 0.973
TACAGGGAAT | 1.03
GGTCCGTGCG | 0.995
CTAGGGATAT | 1
ATTGTGGAAT | 0.984
ATGTTCTTG | 0.996
GTCCCGCGTC | 1.62
AGAAATGGTG | 1.03
ATTGGCATGG | 1.02
ATTTACCGCA | 1.29
AGAAGTTAC | 1.12
GATTACTTTT | 1.04
CGTCGAA | 1.04

Sequence | switch fluorescence ratio
CATACTTGTA | 0.982
GAAGGACGTA | 1.05
GTGGATCCGC | 1.62
AGTGAAATTT | 0.996
TCGAAACGAT | 0.992
ACAGAAGGCG | 1.04
AGCTTTGTTC | 0.999
AGTTCACTCC | 1.01
TGGCTCGAGA | 0.997
CAGACAAACC | 1.15
ACACGCACCC | 1.57
ACAGACCCGG | 0.987
AAAGGGTGTA | 0.998
TAAGACTTTT | 0.972
GCTCTGGTTC | 1.08
AAAATCAATC | 0.996
CTCGGTACTG | 1.06
ATGAAATAGA | 0.969
AACAATTATG | 1.01
CTAAGACATT | 0.988
CCTGAAGCGG | 1.44
ATTTTGTGCA | 1.04
GGTAAAGGAG | 0.985
AGCTCTTTTG | 0.953
GTCTAACGGC | 0.938
CGTGGGAGTT | 0.969

Sequence | switch fluorescence ratio
TGTAATGCTA | 0.999
TGTTCATTTT | 0.996
GATTTAGTGA | 1.03
GACTACAGGC | 1.04
GGTATGGGCT | 1.02
GCAGAGATTG | 1.02
CGTTTGGCTC | 1.07
GGTGTACAGG | 0.992
CATCGAGAAT | 0.988
AACCAGACGG | 1.16
CAATGGCTCC | 1.19
GGTATGGGGC | 1.03
GTCCTCGCCA | 1.45
GTGGCTAGCC | 1.04
CACATCTAAT | 1.03
TCGTTATAAC | 0.981
TCTCGTTTGA | 0.985
CTCGTGGCAG | 1
TCTGTGGCGG | 0.995
GGGTTTGACC | 0.966
TGTATCTGGA | 1.04
ATATACAGTT | 1.04
CTTGTCTCAG | 0.986
CTATCCGAGA | 1.08
GGCTACACCT | 1.15
TCGGTGTTGT | 1.02

Sequence | switch fluorescence ratio
GTGGTTCAGG | 0.972
TAACCCTAA | 1.04
ACGATATTGG | 1.16
TTCTCCTTGC | 1.36
CTCATGCCGT | 1.03
AGCATTGCGT | 1
AACAGCTCGA | 1.04
GGTAGCCTTG | 1.03
CCACTAAAAA | 1.02
GGTCCCGTGC | 1.04
TAAGTCAGTT | 0.992
TGAGAGACCC | 1.04
TTGTGGGCAT | 0.964
AACTTAGTAG | 0.99
GATTCGGTTT | 0.999
TATACATGCC | 1.46
GTCGACATGG | 0.935
TTGCACCAGT | 1.01
AATTAGTTCT | 0.99
CCATGTATCC | 1.04
CCTCGGTGAG | 0.952
GACCATGGTA | 0.979
GGGCTGCAT | 1
CGTGTGAAAC | 1.04
TCAACAAATA | 0.995
GGTAAATGCG | 1.03

Sequence | switch fluorescence ratio
TTCGGTAATT | 1.03
CCTTGGCGCC | 1.02
GTGAGGACCC | 0.939
GATCTGTCTT | 0.998
GGTAGGCATC | 0.97
CAGTGAAGCA | 1.04
ACCGGCAATG | 1.26
GCAACAGGTC | 0.924
CGGAGAGTGC | 1.12
AAAGAGCCGA | 0.954
TGCCCTAGAA | 1.01
ATAAGCTAGC | 1.02
ACTGGAAGAT | 1.05
CGGAGAGGGG | 0.983
GCTTGGTTAT | 1.03
GTTACGCCGT | 1.03
GAAGTGACAT | 1.01
TTTAGATATG | 0.985
GGGCTCGGGG | 1.01
CCGCTTAGAG | 3.57
CTTGCCGGAG | 0.999
AGCGCCATAT | 1.12
TTTCTTATAC | 2.09
GTGTGTATTG | 1.01
ATTAAGACGG | 1.02
TAAGAGCGTT | 1.01

Sequence | switch fluorescence ratio
GGAACTATAT | 0.977
CACGCTTTGA | 1.02
GGATCGAAAT | 0.98
CCATAGCATG | 2.47
ACACATTATT | 0.985
CGTCATAGCG | 0.956
TATGAAAAAA | 0.998
AGTTGAACTT | 0.994
TATACAGTAG | 1.03
CTTTTTTAGC | 0.968
CTGGAATCGA | 1.06
TCGATCGTCC | 1.03
GGTTGTAGTA | 0.996
CTATTGGGAC | 1.02
TTACGGAGCG | 1.06
GTGGGTGTTT | 1.01
CACGCGCCGG | 1.04
TTGTCCCAGG | 3.92
TCCTGTACCT | 1.16
TTGCTTTTC | 1.03
CTTCAGGCAG | 1
AAGGTGTCCC | 0.967
CTAATTGGCT | 0.956
